According to the supplement of paper PMC11876631:
Where a chain is given by its changes, count along the chain named. Numbers in names are those of the source. ± gives the standard deviation of the averaged measurements. Laboratory Escherichia coli strains with one amino-acid change in an essential protein, pooled on minimal glucose agar with carbenicillin or gentamicin at twice the control MIC (plus kanamycin and chloramphenicol for the plasmids), 48 h. Fold change of barcode share against drug-free plates; higher = less susceptible. Active = above 20 in both replicates (the paper's putatively resistant). '<' = one read or none on drug, '>' = one read or none on a drug-free plate. Shares are relative, so most strains fall below 1 when a few take over. Listed are strains with at least 15 reads on both drug-free plates, and hits; most hits rest on fewer reference reads. Replicate rank correlation about 0.5. Edits are read from barcodes.

B1: adk L6A (protein)
chain: MRIILAGAPGAGKGTQAQFIMEKYGIPQISTGDMLRAAVKSGSELGKQAKDIMDAGKLVTDELVIALVKERIAQEDCRNGFLLDGFPRTIPQADAMKEAGINVDYVLEFDVPDELIVDRIVGRRVHAPSGRVYHVKFNPPKVEGKDDVTGEELTTRKDDQEETVRKRLVEYHQMTAPLIGYYSKEAEAGNTKYAKVDGTKPVAEVRADLEKILG
B2: adk L6Q (protein)
chain: B1 chain with A6Q
B3: dnaC L131A (protein)
chain: MKNVGDLMQRLQKMMPAHIKPAFKTGEELLAWQKEQGAIRSAALERENRAMKMQRTFNRSGIRPLHQNCSFENYRVECEGQMNALSKARQYVEEFDGNIASFIFSGKPGTGKNHLAAAICNELLLRGKSVAIITVADIMSAMKDTFRNSGTSEEQLLNDLSNVDLLVIDEIGVQTESKYEKVIINQIVDRRSSSKRPTGMLTNSNMEEMTKLLGERVMDRMRLGNSLWVIFNWDSYRSRVTGKEY
B4: dnaC V135W (protein)
chain: B3 chain with A131L, V135W
B5: dnaC M142A (protein)
chain: B3 chain with A131L, M142A
B6: dnaC L131W (protein)
chain: B3 chain with A131W
B7: dnaC V135Q (protein)
chain: B3 chain with A131L, V135Q
B8: dnaA I59A (protein)
chain: MSLSLWQQCLARLQDELPATEFSMWIRPLQAELSDNTLALYAPNRFVLDWVRDKYLNNANGLLTSFCGADAPQLRFEVGTKPVTQTPQAAVTSNVAAPAQVAQTQPQRAAPSTRSGWDNVPAPAEPTYRSNVNVKHTFDNFVEGKSNQLARAAARQVADNPGGAYNPLFLYGGTGLGKTHLLHAVGNGIMARKPNAKVVYMHSERFVQDMVKALQNNAIEEFKRYYRSVDALLIDDIQFFANKERSQEEFFHTFNALLEGNQQIILTSDRYPKEINGVEDRLKSRFGWGLTVAIEPPELETRVAILMKKADENDIRLPGEVAFFIAKRLRSNVRELEGALNRVIANANFTGRAITIDFVREALRDLLALQEKLVTIDNIQKTVAEYYKIKVADLLSKRRSRSVARPRQMAMALAKELTNHSLPEIGDAFGGRDHTTVLHACRKIEQLREESHDIKEDFSNLIRTLSS
B9: dnaA I59W (protein)
chain: B8 chain with A59W
B10: dnaA I59P (protein)
chain: B8 chain with A59P
B11: dnaA V51A (protein)
chain: B8 chain with V51A, A59I
B12: dnaA I59Q (protein)
chain: B8 chain with A59Q
B13: dnaA I59D (protein)
chain: B8 chain with A59D

What follows are proteins tested against Escherichia coli (laboratory strain) (assay: barcode share on antibiotic plates over drug-free plates; higher = less susceptible). Conditions: antibiotic: carbenicillin; 2× MIC (3.1 µg/mL).
Method: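 A pool of E. coli strains, each edited to carry one amino-acid change in an essential protein, was grown for 48 h on minimal glucose agar with or without antibiotic; strain barcodes were sequenced; mean of two replicates.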

How did the “fold change of barcode share” value turn out when B1 was run?
The value was 0.518 ± 0.25.

Which “fold change of barcode share” value does the source give for B2 here?
Its value is 0.714 ± 0.55.

How did the “fold change of barcode share” value turn out when B3 was run?
The value was 0.41 ± 0.014.

B4 was tested. Which “fold change of barcode share” value did it give?
Its value is 0.354 ± 0.048.

B5 was tested. Which “fold change of barcode share” value did it give?
Its value is 0.268 ± 0.012.

For B6, which “fold change of barcode share” value is on record?
The value was 0.462 ± 0.2.

B7 was tested. Which “fold change of barcode share” value did it give?
Its value is 0.256 ± 0.15.

Which “fold change of barcode share” value does the source give for B8 here?
Its value is 0.349 ± 0.2.

For B9, which “fold change of barcode share” value is on record?
Its value is 0.308 ± 0.22.

For B10, which “fold change of barcode share” value is on record?
The value was 0.39 ± 0.3.

How did the “fold change of barcode share” value turn out when B11 was run?
The value was 0.623 ± 0.37.

B12 was tested. Which “fold change of barcode share” value did it give?
The value was 0.239 ± 0.1.

B13 was tested. Which “fold change of barcode share” value did it give?
Its value is 0.337 ± 0.017.

Same assay, conditions: antibiotic: gentamicin; 2× MIC (MIC 0.45 µg/mL)

Which “fold change of barcode share” value does the source give for B1 here?
The value was less than 0.0025.

With B2 as the protein, how does the “fold change of barcode share” value read?
The value was 0.00835 ± 0.0053.

How did the “fold change of barcode share” value turn out when B3 was run?
The value was less than 0.00524.

B4 was tested. Which “fold change of barcode share” value did it give?
Its value is less than 0.00614.

Which “fold change of barcode share” value does the source give for B5 here?
Its value is 0.0191 ± 0.012.

B6 was tested. Which “fold change of barcode share” value did it give?
The value was less than 0.00675.

For B7, which “fold change of barcode share” value is on record?
The value was less than 0.00539.

Which “fold change of barcode share” value does the source give for B8 here?
Its value is less than 0.0115.

How did the “fold change of barcode share” value turn out when B9 was run?
The value was less than 0.0122.

Which “fold change of barcode share” value does the source give for B10 here?
The value was less than 0.0122.

How did the “fold change of barcode share” value turn out when B11 was run?
The value was 0.0292 ± 0.036.

With B12 as the protein, how does the “fold change of barcode share” value read?
The value was less than 0.0114.

For B13, which “fold change of barcode share” value is on record?
The value was less than 0.00922.
